From the supplement of paper PMC11417369 come the findings set out here.

The list shows a part of the results.

The subject of the experiment is PfSIP2 AP2 domain 1 (GST-tagged). Briefly: gcPBM binding intensity (ln(normalized median fluorescence intensity)); higher = stronger DNA binding. In short, it runs like this: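 Binding intensity is defined as the maximum Masliner-normalised natural-log median intensity across replicate spots for either probe orientation. It was measured on an Agilent 4 × 180k array of primer-extended double-stranded 36-bp intergenic genomic probes and negative controls, to which GST-tagged P. falciparum DNA-binding domains made in E. coli were applied for 1 h in 1× PBS with 1% milk, 0.2 mg/ml BSA, 0.5% salmon testes DNA and 0.03% Triton X-100. Detection was by Alexa488 anti-GST antibody and scanning at 488 nm.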
For the sequence “CATATGTATATGACTACACACAAGGGTGTACCTATA [CACACA_site6670]”, the “gcPBM binding intensity (ln)” value was 6.83.
Then “TATATACAACGTTAAGCACACACAAAAAAAATTTAA [CACACA_site9013]”, with 6.99; and “TTGCATTTATTATACACACACAAAAAAATATTTATA [CACACA_site6252]”, with 7.21; and “TGTTCATTTTTAAAATGTACATATATGTTGTTCCAT [XGTACX_site8444]”, with 7.01.
The figure for “CTATATGTTAAATTCTCACACATTATTACAATTTAA [CACACA_site5979]” is 7.01; for “ACGTATTTTTAAATATATGAATTATGTAACTTGTGA [CACACA_negctrl_site1446]” it is 6.92; for “TATACTATTTAAATGTGTACTAAAAGAATATATTAT [XGTACX_site5238]” it is 7.08.
The figure for “GAATATGTGATATTTTGTACATAAAAATAATATATA [XGTACX_site6398]” is 6.93; for “TATTATAATATATTTGTGCACATAATATCTCCGCTA [GTGCAC_site9799]” it is 9.22; for “AGTAGTCTGGAGAAAAGTACATAGTATCTGATAACC [XGTACX_site2028]” it is 6.97.
As to “AAAAAGATAAAATATACATGCATATATAATATACAT [TGCATGCA_site488]”, the “gcPBM binding intensity (ln)” value stood at 6.62.
The figure for “TGCTTATATATAAATTGTACTGAAAGAATAAAATAA [XGTACX_site4025]” is 7.07.
Regarding “AAAAAAAAAAAATACACACACATATTTATTTATATA [CACACA_site7114]”, the “gcPBM binding intensity (ln)” value is 6.76.
Turning to “AAAAAAGGTAAAAAAAGTACAAAAAAAAAATTAAAA [XGTACX_site6993]”, the “gcPBM binding intensity (ln)” value turned out to be 7.03.
“TTTGGATAAAAAATATGTACACACATATAGATATCT [XGTACX_site5660]”: the “gcPBM binding intensity (ln)” value worked out at 6.9.
Then “TTGACAGGAACGTTGGTGCACGTACTGTTTTTCTTT [GTGCAC_site9389]”, with 10.7; and “GTATAATATTTTAATGCACACACACTAATAAAAAAA [CACACA_site8939]”, with 7.65; and “AAGTATAAATAAAGGCGTACACATGTAAATTATATT [XGTACX_site126]”, with 7.01.
The figure for “TAATAGATGTTATGAAGTACTAAATATTAAATATAA [XGTACX_site5717]” is 6.93.
On to “TTTATTTTAAATGGGTGTACTCATTCCTTATGGAAG [XGTACX_site1397]”, for which the “gcPBM binding intensity (ln)” value amounted to 6.82.
The figure for “AAAATAATTCATGTTGGTAATAAGACTCGAGGTGAA [CACACA_negctrl_site1054]” is 7.02; for “ATAATATGAAATATAACACACATATATAAAAACATT [CACACA_site866]” it is 6.89; for “TATTTTTTTTTTGGGTGTACCTTTTATATATATTGT [XGTACX_site5036]” it is 7.17.
The figure for “TATACACATTTTTATACACACTTGTTTTATAAAACG [CACACA_site6480]” is 6.96; for “ATTTAACTAAAGAAGGCACACGTGTTTAAAAAAAAA [CACACA_site5241]” it is 6.97; for “CATTTATATATATACACACACACAAAAAAAAAAAAA [CACACA_site2645]” it is 7.1.
Then “GACGTTATGATACACATACACACAGGGATAAAAAAT [CACACA_site2882]”, with 7.12.
Consider “AATATTATATTTTATTGTACTAATAAAAATATATGC [XGTACX_site5435]”, for which the “gcPBM binding intensity (ln)” value came to 7.16.
The figure for “TATATATATATATATGCATGTACATATATTTGTTAT [TGCATGCA_site379]” is 9.76; for “TTTTTTTTTTTTTTTTGTACTTAAAAATTTATATAA [XGTACX_site7718]” it is 6.95.
With “AATATAGTTCAATATACACACCCCTTTATTCATTTT [CACACA_site3625]”, the “gcPBM binding intensity (ln)” value was found to be 6.78.
With “GTAACATACACATATACACACACACCGATATACATA [CACACA_site8278]”, the “gcPBM binding intensity (ln)” value was 7.26.
Then “ATTAATTAAGGCACATGTACAAAATATTTTTTATAA [XGTACX_site1964]”, with 7.16.
Then “TATACAATCTATATAACACACATATTTATATAAAAT [CACACA_site1797]”, with 7.1; and “ACAAAACGAACATACGCATGTGTGTACATTAATATA [TGCATGCA_site922]”, with 7.12; and “TTATTTACATCAAGTACATGCAGTAAAAAAAAAAAA [TGCATGCA_site351]”, with 7.07.
With “CACCAATTCCTATGCACACACATCTGCATATTATAT [CACACA_site5049]”, the “gcPBM binding intensity (ln)” value amounted to 7.55.
For “ATATAATATATGTATACACACATATTATATAATATT [CACACA_site3699]”, the “gcPBM binding intensity (ln)” value was determined as 6.8.
The figure for “ATGAACAGTTCATGTTGTACAATCTCCATTTTTTAC [XGTACX_site3933]” is 6.89.
In the case of “CAATATAAAAAACACACACACAAACATATATTTATA [CACACA_site3703]”, the “gcPBM binding intensity (ln)” value came to 6.97.
Then “TGTCGGCTTAGATTAGTGCACTGAAAAATGAAGTAT [GTGCAC_site9919]”, with 10.5; and “TATTTATATAAAAATACACACATGAATGGATATATA [CACACA_site6335]”, with 6.91.
On to “TTTCGATTAAAAATTGTACAATATAAGGAGCACACA [GTGCAC_negctrl_site476]”, for which the “gcPBM binding intensity (ln)” value is 7.5.
Turning to “AACCACAGACATATAACACACATATACAATATATAT [CACACA_site5142]”, the “gcPBM binding intensity (ln)” value was 7.3.
In the case of CTTTTTTTGACCTTAGTGCAAATAACTATATATTAT, the “gcPBM binding intensity (ln)” value is 7.79.
